Assay results as given in the supplement of paper PMC8728848.
Some of the results follow.

Tests used:
Assay in all cases: glycan array binding signal (z-score within array); higher = stronger binding
Details in all cases: glycan notation: IUPAC condensed, linker removed
[1] = biological target: Neu5Ac(a2-6)Gal(b1-4)GlcNAc(b1-3)[Neu5Ac(a2-6)Gal(b1-4)GlcNAc(b1-6)]GalNAc
In short: (§1)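 Arrays were curated from the Consortium for Functional Glycomics database, 3228 in total, and kept only where the protein sequence was available. Binding is expressed as a within-array Z-score. This score was averaged across arrays of the same protein sequence at different concentrations or buffers and across linkers, and negative values can be read as non-binding.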

[2] = biological target: Neu5Ac(a2-6)Gal(b1-4)GlcNAc(b1-6)GalNAc
In short: as §1

[3] = biological target: Neu5Ac(a2-6)Gal(b1-4)GlcNAc(b1-6)[Gal(b1-3)GlcNAc(b1-3)]Gal(b1-4)Glc
In short: as §1

[4] = biological target: Neu5Ac(a2-6)Gal(b1-4)GlcNAc(b1-6)[Gal(b1-3)]GalNAc
In short: as §1

[5] = biological target: Neu5Ac(a2-6)Gal(b1-4)GlcNAc6S
In short: as §1

[6] = biological target: Neu5Ac(a2-6)GalNAc
In short: as §1

[7] = biological target: Neu5Ac(a2-6)GalNAc(b1-4)GlcNAc
In short: as §1

[8] = biological target: Neu5Ac(a2-6)GalNAc(b1-4)GlcNAc6S
In short: as §1

[9] = biological target: Neu5Ac(a2-6)GlcNAc(b1-4)GlcNAc
In short: as §1

[10] = biological target: Neu5Ac(a2-6)GlcNAc(b1-4)GlcNAc(b1-4)GlcNAc
In short: as §1

[11] = biological target: Neu5Ac(a2-8)Neu5Ac
In short: as §1

[12] = biological target: Neu5Ac(a2-8)Neu5Ac(a2-3)Gal(b1-3)GalNAc(b1-4)[Neu5Ac(a2-3)]Gal(b1-4)Glc
In short: as §1

[13] = biological target: Neu5Ac(a2-8)Neu5Ac(a2-3)Gal(b1-3)GalNAc(b1-4)[Neu5Ac(a2-8)Neu5Ac(a2-3)]Gal(b1-4)Glc
In short: as §1

[14] = biological target: Neu5Ac(a2-8)Neu5Ac(a2-3)Gal(b1-4)Glc
In short: as §1

[15] = biological target: Neu5Ac(a2-8)Neu5Ac(a2-3)Gal(b1-4)GlcNAc
In short: as §1

[16] = biological target: Neu5Ac(a2-8)Neu5Ac(a2-3)[Gal(b1-3)GalNAc(b1-4)]Gal(b1-4)Glc
In short: as §1

[17] = biological target: Neu5Ac(a2-8)Neu5Ac(a2-3)[GalNAc(b1-4)]Gal(b1-4)Glc
In short: as §1

[18] = biological target: Neu5Ac(a2-8)Neu5Ac(a2-8)Neu5Ac
In short: as §1

[19] = biological target: Neu5Ac(a2-8)Neu5Ac(a2-8)Neu5Ac(a2-3)Gal(b1-4)Glc
In short: as §1

[20] = biological target: Neu5Ac(a2-8)Neu5Ac(a2-8)Neu5Ac(a2-3)[Gal(b1-3)GalNAc(b1-4)]Gal(b1-4)Glc
In short: as §1

[21] = biological target: Neu5Ac(a2-8)Neu5Ac(a2-8)Neu5Ac(a2-3)[GalNAc(b1-4)]Gal(b1-4)Glc
In short: as §1

[22] = biological target: Neu5Ac(a2-8)Neu5Ac(a2-8)Neu5Ac(a2-8)Neu5Ac(a2-3)[GalNAc(b1-4)]Gal(b1-4)Glc
In short: as §1

[23] = biological target: Neu5Ac(a2-8)Neu5Gc(a2-3)Gal(b1-4)GlcNAc
In short: as §1

[24] = biological target: Neu5Ac(b2-6)Gal(b1-4)GlcNAc
In short: as §1

[25] = biological target: Neu5Ac(b2-6)GalNAc
In short: as §1

[26] = biological target: Neu5Ac9Ac(a2-3)Gal(b1-3)GlcNAc
In short: as §1

[27] = biological target: Neu5Ac9Ac(a2-3)Gal(b1-4)GlcNAc
In short: as §1

[28] = biological target: Neu5Ac9Ac(a2-6)Gal(b1-4)GlcNAc
In short: as §1

[29] = biological target: Neu5Gc(a2-3)Gal(b1-3)GlcNAc
In short: as §1

[30] = biological target: Neu5Gc(a2-3)Gal(b1-3)[Fuc(a1-4)]GlcNAc
In short: as §1

[31] = biological target: Neu5Gc(a2-3)Gal(b1-4)Glc
In short: as §1

[32] = biological target: Neu5Gc(a2-3)Gal(b1-4)GlcNAc
In short: as §1

[33] = biological target: Neu5Gc(a2-3)Gal(b1-4)GlcNAc(b1-3)Gal(b1-4)GlcNAc(b1-2)Man(a1-3)[Neu5Gc(a2-3)Gal(b1-4)GlcNAc(b1-3)Gal(b1-4)GlcNAc(b1-2)Man(a1-6)]Man(b1-4)GlcNAc(b1-4)GlcNAc
In short: as §1

[34] = biological target: Neu5Gc(a2-3)Gal(b1-4)[Fuc(a1-3)]GlcNAc
In short: as §1

[35] = biological target: Neu5Gc(a2-6)Gal(b1-4)GlcNAc
In short: as §1

[36] = biological target: Neu5Gc(a2-6)GalNAc
In short: as §1

[37] = biological target: Neu5Gc(a2-8)Neu5Ac(a2-3)Gal(b1-4)GlcNAc
In short: as §1

[38] = biological target: Neu5Gc(a2-8)Neu5Gc(a2-3)Gal(b1-4)GlcNAc
In short: as §1

B1: Apa (Mycobacterium tuberculosis), Rv1860 (protein)
chain: MHQVDPNLTRRKGRLAALAIAAMASASLVTVAVPATANADPEPAPPVPTTAASPPSTAAAPPAPATPVAPPPPAAANTPNAQPGDPNAAPPPADPNAPPPPVIAPNAPQPVRIDNPVGGFSFALPAGWVESDAAHFDYGSALLSKTTGDPPFPGQPPPVANDTRIVLGRLDQKLYASAEATDSKAAARLGSDMGEFYMPYPGTRINQETVSLDANGVSGSASYYEVKFSDPSKPNGQIWTGVIGSPAANAPDAGPPQRWFVVWLGTANNPVDKGAAKALAESIRPLVAPPPAPAPAPAEPAPAPAPAGEVAPTPTTPTPQRTLPA
- glycan array binding signal (z-score) [1]: -0.309
- glycan array binding signal (z-score) [2]: 1.09
- glycan array binding signal (z-score) [3]: -0.059
- glycan array binding signal (z-score) [4]: -0.396
- glycan array binding signal (z-score) [5]: 0.026
- glycan array binding signal (z-score) [6]: -0.504
- glycan array binding signal (z-score) [7]: -0.549
- glycan array binding signal (z-score) [8]: 0.18
- glycan array binding signal (z-score) [9]: -0.224
- glycan array binding signal (z-score) [10]: -0.326
- glycan array binding signal (z-score) [11]: -0.002
- glycan array binding signal (z-score) [12]: -0.537
- glycan array binding signal (z-score) [13]: -0.196
- glycan array binding signal (z-score) [14]: -0.474
- glycan array binding signal (z-score) [15]: -0.359
- glycan array binding signal (z-score) [16]: 0.084
- glycan array binding signal (z-score) [17]: -0.159
- glycan array binding signal (z-score) [18]: -0.371
- glycan array binding signal (z-score) [19]: -0.162
- glycan array binding signal (z-score) [20]: -0.168
- glycan array binding signal (z-score) [21]: -0.293
- glycan array binding signal (z-score) [22]: -0.27
- glycan array binding signal (z-score) [23]: -0.512
- glycan array binding signal (z-score) [24]: -0.049
- glycan array binding signal (z-score) [25]: -0.414
- glycan array binding signal (z-score) [26]: -0.592
- glycan array binding signal (z-score) [27]: -0.65
- glycan array binding signal (z-score) [28]: -0.196
- glycan array binding signal (z-score) [29]: -0.229
- glycan array binding signal (z-score) [30]: -0.3
- glycan array binding signal (z-score) [31]: -0.297
- glycan array binding signal (z-score) [32]: -0.451
- glycan array binding signal (z-score) [33]: -0.057
- glycan array binding signal (z-score) [34]: -0.302
- glycan array binding signal (z-score) [35]: -0.159
- glycan array binding signal (z-score) [36]: -0.641
- glycan array binding signal (z-score) [37]: 0.187
- glycan array binding signal (z-score) [38]: -0.072
